From publication PMC10209169
No constants are given. Whether binding was seen depends on the method and setting. Binding seen in cells or lysates may run through a third protein. Some results given as binding are weak or reduced against the parent protein; the word gives no strength. For some of these results: Tags and fused reporters may be left off the sequences shown. Blank lines part the entries; values can stand above or below the molecule they belong to.

Amino acid sequences for entries named in this document (tags omitted).
UniProt Q9BQ24: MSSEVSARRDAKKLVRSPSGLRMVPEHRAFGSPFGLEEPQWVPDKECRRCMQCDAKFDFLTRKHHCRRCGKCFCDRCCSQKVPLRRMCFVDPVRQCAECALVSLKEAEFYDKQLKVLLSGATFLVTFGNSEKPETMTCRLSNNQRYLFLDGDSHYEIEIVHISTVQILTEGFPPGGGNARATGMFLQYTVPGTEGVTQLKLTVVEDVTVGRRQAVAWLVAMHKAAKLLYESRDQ
UniProt P29466: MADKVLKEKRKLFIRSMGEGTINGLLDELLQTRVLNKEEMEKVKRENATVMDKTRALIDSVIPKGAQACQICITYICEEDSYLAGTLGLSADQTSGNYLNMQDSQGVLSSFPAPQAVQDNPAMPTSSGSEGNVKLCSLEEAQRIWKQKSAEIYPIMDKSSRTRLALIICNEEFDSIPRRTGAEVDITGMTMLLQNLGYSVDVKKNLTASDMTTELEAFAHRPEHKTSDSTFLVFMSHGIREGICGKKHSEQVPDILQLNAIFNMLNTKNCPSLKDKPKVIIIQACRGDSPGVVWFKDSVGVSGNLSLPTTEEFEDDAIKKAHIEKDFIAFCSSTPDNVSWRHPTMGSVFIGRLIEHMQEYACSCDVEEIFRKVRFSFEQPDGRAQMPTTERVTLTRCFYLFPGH

Tests used:
[1] = molecular target: T1, AA 625-760 of Rubicon fused with GFP (UniProt Q92622); test: co-IP; GFP co-IP from HeLa cells transiently transfected with GFP-tagged Rubicon truncation constructs; blot for procaspase-1
T1 sequence: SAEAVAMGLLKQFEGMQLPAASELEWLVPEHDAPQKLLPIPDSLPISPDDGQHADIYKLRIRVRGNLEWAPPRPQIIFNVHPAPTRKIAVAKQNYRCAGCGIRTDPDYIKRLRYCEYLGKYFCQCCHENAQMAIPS

[2] = molecular target: T2, Flightless I (human (endogenous in HUVEC)) (UniProt Q13045); test: co-IP; anti-FliI pulldown from lysates of HUVEC after PRA treatment
T2 sequence: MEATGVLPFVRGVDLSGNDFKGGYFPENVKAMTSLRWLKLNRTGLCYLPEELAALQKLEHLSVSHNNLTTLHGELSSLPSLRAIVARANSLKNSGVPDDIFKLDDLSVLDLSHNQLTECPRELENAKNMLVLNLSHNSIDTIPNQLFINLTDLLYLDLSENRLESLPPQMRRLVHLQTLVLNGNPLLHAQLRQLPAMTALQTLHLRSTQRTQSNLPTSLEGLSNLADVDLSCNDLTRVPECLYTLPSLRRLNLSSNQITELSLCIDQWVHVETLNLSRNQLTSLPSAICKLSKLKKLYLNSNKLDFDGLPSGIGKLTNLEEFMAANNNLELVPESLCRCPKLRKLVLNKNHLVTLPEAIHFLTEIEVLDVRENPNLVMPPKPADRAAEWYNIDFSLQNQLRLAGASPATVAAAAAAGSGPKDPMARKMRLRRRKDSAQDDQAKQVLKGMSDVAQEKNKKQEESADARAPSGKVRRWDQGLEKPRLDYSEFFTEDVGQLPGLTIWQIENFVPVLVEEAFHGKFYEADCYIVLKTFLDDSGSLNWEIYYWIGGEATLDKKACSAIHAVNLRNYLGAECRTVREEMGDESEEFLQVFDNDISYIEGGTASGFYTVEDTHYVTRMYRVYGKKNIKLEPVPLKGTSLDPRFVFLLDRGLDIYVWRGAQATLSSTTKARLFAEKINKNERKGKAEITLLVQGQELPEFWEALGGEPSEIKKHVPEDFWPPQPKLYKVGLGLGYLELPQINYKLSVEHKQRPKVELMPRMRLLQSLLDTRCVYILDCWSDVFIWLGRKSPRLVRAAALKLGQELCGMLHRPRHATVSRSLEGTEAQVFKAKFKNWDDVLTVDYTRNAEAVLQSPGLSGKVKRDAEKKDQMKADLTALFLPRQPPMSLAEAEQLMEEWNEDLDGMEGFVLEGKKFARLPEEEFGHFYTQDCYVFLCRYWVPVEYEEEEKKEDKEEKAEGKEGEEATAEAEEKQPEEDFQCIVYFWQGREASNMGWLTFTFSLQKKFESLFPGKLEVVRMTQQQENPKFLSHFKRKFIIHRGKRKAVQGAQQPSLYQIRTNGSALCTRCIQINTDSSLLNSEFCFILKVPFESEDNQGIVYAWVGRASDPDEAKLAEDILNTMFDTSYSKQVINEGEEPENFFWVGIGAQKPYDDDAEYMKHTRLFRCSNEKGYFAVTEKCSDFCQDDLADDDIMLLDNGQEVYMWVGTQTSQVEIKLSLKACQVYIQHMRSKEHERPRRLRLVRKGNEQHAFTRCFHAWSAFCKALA

[3] = molecular target: T2, Flightless I (human (endogenous in HUVEC)); test: co-IP; anti-FliI pulldown from lysates of HUVEC, basal and PRA for the indicated times; RIPA buffer without SDS, protein A/G agarose
ZFYVE21-GFP [4] = molecular target: ZFYVE21-GFP (UniProt Q9BQ24); test: co-IP; GFP pulldown from HUVEC stably transduced with ZFYVE21-GFP, PRA for 30 min
[5] = molecular target: ZFYVE21 (human (endogenous in HUVEC)) (UniProt Q9BQ24); test: co-IP; ZFYVE21 co-IP from cortical renal tissue of subjects with antibody-mediated rejection (ABMR, n = 6)
ZFYVE21-GFP [6] = molecular target: ZFYVE21-GFP (UniProt Q9BQ24); test: co-IP; GFP co-IP from HUVEC stably co-transduced with Rab5 DN-mCherry and ZFYVE21-GFP or Rubicon-GFP, treated with MG132
[7] = molecular target: procaspase-1 (50 kD) (human (endogenous in HUVEC)) (UniProt P29466); test: co-IP; anti-caspase-1 pulldown from HUVEC transiently transfected with increasing plasmid concentrations encoding AA 625-760 of Rubicon fused with GFP, or full-length FliI (competition by overexpression)
[8] = molecular target: ZFYVE21 (human (endogenous in HUVEC)) (UniProt Q9BQ24); test: co-IP; ZFYVE21 co-IP from human cortical renal tissue of control patients in organ culture, PRA for 4 h; Western blot (n = 3)
[9] = molecular target: ZFYVE21 (human (endogenous in HUVEC)) (UniProt Q9BQ24); test: co-IP; ZFYVE21 co-IP from cortical renal tissue of healthy control subjects (HC, n = 6)

binding [1]: binds | binding [3]: binds
Molecule: procaspase-1 (50 kD) (from UniProt P29466 1-404) (enzyme)
binding [2]: no binding (condition: after PRA treatment)

binding (ZFYVE21-GFP [4]): binds | binding [5]: binds | binding (ZFYVE21-GFP [6]): binds | binding [7]: binds | binding [8]: binds | binding [3]: binds
B1: Rubicon (protein, UniProt Q92622 1-972)
chain: MRPEGAGMELGGGEERLPEESRREHWQLLGNLKTTVEGLVSTNSPNVWSKYGGLERLCRDMQSILYHGLIRDQACRRQTDYWQFVKDIRWLSPHSALHVEKFISVHENDQSSADGASERAVAELWLQHSLQYHCLSAQLRPLLGDRQYIRKFYTDAAFLLSDAHVTAMLQCLEAVEQNNPRLLAQIDASMFARKHESPLLVTKSQSLTALPSSTYTPPNSYAQHSYFGSFSSLHQSVPNNGSERRSTSFPLSGPPRKPQESRGHVSPAEDQTIQAPPVSVSALARDSPLTPNEMSSSTLTSPIEASWVSSQNDSPGDASEGPEYLAIGNLDPRGRTASCQSHSSNAESSSSNLFSSSSSQKPDSAASSLGDQEGGGESQLSSVLRRSSFSEGQTLTVTSGAKKSHIRSHSDTSIASRGAPESCNDKAKLRGPLPYSGQSSEVSTPSSLYMEYEGGRYLCSGEGMFRRPSEGQSLISYLSEQDFGSCADLEKENAHFSISESLIAAIELMKCNMMSQCLEEEEVEEEDSDREIQELKQKIRLRRQQIRTKNLLPMYQEAEHGSFRVTSSSSQFSSRDSAQLSDSGSADEVDEFEIQDADIRRNTASSSKSFVSSQSFSHCFLHSTSAEAVAMGLLKQFEGMQLPAASELEWLVPEHDAPQKLLPIPDSLPISPDDGQHADIYKLRIRVRGNLEWAPPRPQIIFNVHPAPTRKIAVAKQNYRCAGCGIRTDPDYIKRLRYCEYLGKYFCQCCHENAQMAIPSRVLRKWDFSKYYVSNFSKDLLIKIWNDPLFNVQDINSALYRKVKLLNQVRLLRVQLCHMKNMFKTCRLAKELLDSFDTVPGHLTEDLHLYSLNDLTATRKGELGPRLAELTRAGATHVERCMLCQAKGFICEFCQNEDDIIFPFELHKCRTCEECKACYHKACFKSGSCPRCERLQARREALARQSLESYLSDYEEEPAEALALEAAVLEAT
binding [9]: no binding (condition: healthy control (HC) tissues)
